Experimental findings from PMC4336329 (PLoS ONE, 2015) are described below.

The whole screen tested about 310,000 compounds, of which about 14,000 (4.5%) showed an effect of 50% or more. Effects have a minus sign here. Some of the results follow.
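Further: peak tail current of the secondary pulse compared with the same well before compound.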

For this assay, the target named is human ether-à-go-go-related gene (hERG) potassium channel (human, UniProt Q12809). As to the kind of experiment: primary screen, population patch clamp on CHO cells stably expressing hERG.
human ether-à-go-go-related gene (hERG) potassium channel, sequence (Q12809 whole entry, looked up): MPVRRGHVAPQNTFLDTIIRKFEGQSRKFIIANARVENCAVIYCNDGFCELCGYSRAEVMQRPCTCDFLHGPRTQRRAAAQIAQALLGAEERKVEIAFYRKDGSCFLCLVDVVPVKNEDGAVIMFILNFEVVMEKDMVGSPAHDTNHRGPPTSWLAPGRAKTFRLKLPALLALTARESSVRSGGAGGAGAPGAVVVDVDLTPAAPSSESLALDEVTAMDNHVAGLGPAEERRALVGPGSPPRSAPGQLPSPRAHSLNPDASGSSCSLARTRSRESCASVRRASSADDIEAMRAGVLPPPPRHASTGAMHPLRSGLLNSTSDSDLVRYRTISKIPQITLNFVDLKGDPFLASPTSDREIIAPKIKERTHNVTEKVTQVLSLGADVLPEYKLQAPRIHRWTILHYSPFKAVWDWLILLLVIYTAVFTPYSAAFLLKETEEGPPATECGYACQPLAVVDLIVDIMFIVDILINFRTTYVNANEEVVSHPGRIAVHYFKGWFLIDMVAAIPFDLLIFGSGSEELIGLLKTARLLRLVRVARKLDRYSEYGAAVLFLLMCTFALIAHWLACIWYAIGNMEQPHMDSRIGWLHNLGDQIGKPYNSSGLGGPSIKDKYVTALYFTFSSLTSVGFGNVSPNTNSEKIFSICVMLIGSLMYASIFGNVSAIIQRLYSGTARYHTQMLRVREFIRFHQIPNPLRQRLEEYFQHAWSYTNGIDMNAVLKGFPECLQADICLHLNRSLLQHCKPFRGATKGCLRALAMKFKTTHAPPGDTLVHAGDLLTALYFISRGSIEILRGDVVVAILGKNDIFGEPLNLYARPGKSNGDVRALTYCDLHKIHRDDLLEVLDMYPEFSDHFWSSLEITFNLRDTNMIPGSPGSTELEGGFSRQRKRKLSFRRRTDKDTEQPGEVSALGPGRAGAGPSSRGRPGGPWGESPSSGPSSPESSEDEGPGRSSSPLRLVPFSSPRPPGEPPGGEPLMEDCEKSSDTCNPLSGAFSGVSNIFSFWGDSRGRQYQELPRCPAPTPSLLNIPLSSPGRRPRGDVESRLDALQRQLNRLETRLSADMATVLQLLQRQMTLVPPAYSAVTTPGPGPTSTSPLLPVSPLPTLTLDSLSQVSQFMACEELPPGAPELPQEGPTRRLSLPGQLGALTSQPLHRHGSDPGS
In the case of `CC(C)(C)NC(=O)c1cccc2c1C(=O)c1ccccc1-2`, the “hERG current change (%, negative = inhibition) at 10uM” value turned out to be 1.66%.
Take `CC1CCN(S(=O)(=O)c2cn(CC(=O)Nc3cccc(C#N)c3)cn2)CC1`: the “hERG current change (%, negative = inhibition) at 10uM” value is 12.7%.
For the compound `COc1ccc(NC(=O)C2CCOC(C)(C)C2)cc1` (centres unmarked), the “hERG current change (%, negative = inhibition) at 10uM” value is reported as 16.2%.
Turning to `CCOC(=O)c1c(NC(=O)CSc2nc3ccccc3o2)sc(C(C)=O)c1C`, the “hERG current change (%, negative = inhibition) at 10uM” value came to 12.4%.
In the case of `Cc1ccc(/C=C2/Sc3ccc(C(=O)N4CCC5(CC4)OCCO5)cc3NC2=O)cc1`, the “hERG current change (%, negative = inhibition) at 10uM” value is 16.1%.
`COc1ccc(NC(=O)C2CCC(CNc3c(N4CCCCC4)c(=O)c3=O)CC2)c(OC)c1` (centres unmarked): the “hERG current change (%, negative = inhibition) at 10uM” value was found to be 9.23%.
As to `COc1ccc(NS(=O)(=O)c2ccc(Oc3cccc(C(=O)O)c3)cc2)cc1`, the “hERG current change (%, negative = inhibition) at 10uM” value was 24.3%.
Under `Cc1cccc(NC(=O)c2cc(N3C(=O)CCC3=O)ccc2Cl)n1` stands 4.41%; under `CC(=O)c1c(C)n([O-])c2ccc(C)cc2[n+]1=O`, -1.91%.
`COc1ccc(S(=O)(=O)N2CCN(C)CC2)cc1NC(=O)c1ccccc1`: the “hERG current change (%, negative = inhibition) at 10uM” value is -38.8%.
In the case of `COc1cc(-c2nnc3sc(Cc4ccc(Cl)cc4)nn23)cc(OC)c1OC`, the “hERG current change (%, negative = inhibition) at 10uM” value is listed as 5.28%.
With `COc1ccc(-c2nc3scc(-c4ccc(OC)c(OC)c4)c3c(=O)o2)cc1`, the “hERG current change (%, negative = inhibition) at 10uM” value stood at 5.49%.
The same measure for `COC(=O)c1sccc1NC(=S)Nc1ccc(OC)cc1`: 12.6%; for `COc1cccc(CNC(=O)Cn2nc([N+](=O)[O-])c(Br)c2C)c1`: 1.3%.
As to `CCn1c(C)cc(/C=C2\NC(=O)N(Cc3ccccc3)C2=O)c1C`, the “hERG current change (%, negative = inhibition) at 10uM” value was determined as 12.9%.
The same measure for `Cc1ccc(S(=O)(=O)N(CC(=O)Nc2cccc([N+](=O)[O-])c2)Cc2ccc(Cl)cc2)cc1`: 10.2%; for `CCOC(=O)N1CCN(c2ccc(F)cc2[N+](=O)[O-])CC1`: -10.5%; for `Cc1c(Cc2ccccc2)c(=O)oc2cc(OCC(=O)NCC(O)c3ccccc3)ccc12` (centres unmarked): 28.7%.
As to `COC(C[C@@H]1O[C@@H]1[C@H](O)[C@@H](C)OCc1ccccc1)OC`, the “hERG current change (%, negative = inhibition) at 10uM” value is recorded as -6.42%.
As for `O=C1CC(c2ccc(F)cc2)C(n2cncn2)C(O)=C1C1NCCc2ccccc21` (centres unmarked), the “hERG current change (%, negative = inhibition) at 10uM” value turned out to be 10.6%.
With `Cc1ccccc1NC(=O)CSCc1nc(N)nc(Nc2ccccc2C)n1`, the “hERG current change (%, negative = inhibition) at 10uM” value is reported as -1.57%.
For `CCS(=O)(=O)N1CCC(C(=O)NCCN2CCOCC2)CC1`, the “hERG current change (%, negative = inhibition) at 10uM” value is listed as 3.01%.
`CC(=O)NC(CC(=O)OCC(=O)N1CCN(S(=O)(=O)c2ccc(C)cc2C)CC1)c1ccccc1` (centres unmarked): the “hERG current change (%, negative = inhibition) at 10uM” value is given as -25.7%.
